Test results published in article PMC7948471, “RSU-1 interaction with prohibitin-2 links cell–extracellular matrix detachment to downregulation of ERK signaling” (The Journal of Biological Chemistry, 2020).
No constants are given. Whether binding was seen depends on the method and setting. For some assays here: Binding seen in cells or lysates may run through a third protein. Some results given as binding are weak or reduced against the parent protein; the word gives no strength. For some assays here: Where a sequence is shown, tags or fusion partners need not be part of it.

By UniProt entry, the sequences of proteins in these tests, tags left out. Where a name states a change or a piece, a line headed by the entry shows the natural chain unless it says otherwise. Chains listed by the source or under a name are the forms on record and can include a tag or linker. Residues count along the entry.
UniProt Q99623: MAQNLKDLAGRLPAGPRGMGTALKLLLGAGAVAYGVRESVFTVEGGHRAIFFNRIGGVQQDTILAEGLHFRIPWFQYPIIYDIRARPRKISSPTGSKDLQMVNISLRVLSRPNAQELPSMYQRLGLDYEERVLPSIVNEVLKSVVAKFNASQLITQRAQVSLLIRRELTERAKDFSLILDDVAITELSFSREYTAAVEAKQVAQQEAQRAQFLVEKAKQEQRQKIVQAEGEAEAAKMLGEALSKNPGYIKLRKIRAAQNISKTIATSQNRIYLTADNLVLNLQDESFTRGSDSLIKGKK
MBP-tagged PHB2 N-terminal region (amino acids 1–152): residues 1-152 of Q99623
GFP-PHB2 fragment (150–206): residues 150-206 of Q99623
MBP-tagged PHB2 C-terminal region (amino acids 201–299): residues 201-299 of Q99623

Tests used:
[1] = molecular target: T1, RSU1 (Ras Suppressor 1), full-length, in pGBKT7 (yeast two-hybrid bait) (human) (UniProt Q15404); assay: two-hybrid; yeast two-hybrid screen; pGBKT7/RSU1 as bait against a human keratinocyte … cDNA library
T1 sequence: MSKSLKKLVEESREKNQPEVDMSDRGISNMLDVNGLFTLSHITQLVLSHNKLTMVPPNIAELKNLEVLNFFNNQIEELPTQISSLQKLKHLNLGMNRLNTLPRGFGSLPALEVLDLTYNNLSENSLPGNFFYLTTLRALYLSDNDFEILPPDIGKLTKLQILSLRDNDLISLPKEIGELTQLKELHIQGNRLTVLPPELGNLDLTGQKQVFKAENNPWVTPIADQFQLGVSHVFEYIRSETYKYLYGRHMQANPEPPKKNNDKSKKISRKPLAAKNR

[2] = molecular target: PHB2-Ruby2 (Ruby2-N1 vector carrying PHB2) (human) (UniProt Q99623); assay: FRET or BRET; TCSPC-FLIM of the Clover donor in fixed HT1080 cells adhered to fibronectin (10 μg/ml) for 5 h; control Ruby2 alone (lifetime of RSU1-Clover 2.226 ± 0.020 ns, n = 33)
PHB2-Clover (human) = PHB2-Clover (human) (UniProt Q99623); assay: FRET or BRET; TCSPC-FLIM of the Clover donor in fixed HT1080 cells kept in suspension for 5 h; control Ruby2 alone (lifetime of RSU1-Clover 2.315 ± 0.019 ns, n = 44)
[3] = molecular target: GFP-PHB2 fragment (150–206) (human) (UniProt Q99623); assay: co-IP; HT1080 cells transfected with GFP or GFP-PHB2 fragment (150–206) for 24 h; immunoprecipitation with anti-GFP antibodies; Western blot with anti-RSU1 and anti-GFP
[4] = molecular target: PHB2, endogenous in HT1080 cells (human (endogenous in HT1080)) (UniProt Q99623); assay: co-IP; endogenous proteins of HT1080 cells; lysis buffer 10 mM Tris/HCl pH 7.6, 500 mM NaCl, 1.75% n-octyl-β-D-glucopyranoside; agarose beads with anti-RSU1 or anti-PHB2 antibody, control IgG; also cells adhered to fibronectin (10 μg/ml) or kept in suspension for 5 h
[5] = molecular target: GST–PHB2 fusion protein (human) (UniProt Q99623); assay: pull-down; GST-PHB2 or GST on glutathione-Sepharose 4B beads with precleared HeLa lysate (1% TX-100, 50 mM Hepes pH 7.1, 150 mM NaCl), 4 °C overnight; Western blot with anti-RSU1; only the target purified
[6] = molecular target: MBP-tagged PHB2 C-terminal region (amino acids 201–299) (human) (UniProt Q99623); assay: pull-down; GST-RSU1 (10 μg/ml) with amylose beads holding MBP-tagged full-length or deletion forms of PHB2 or MBP; 1% Triton X-100, 10 mM Tris, 100 mM NaH2PO4, pH 8.0; 4 °C, 3 h; Western blot with anti-RSU1; both purified
[7] = molecular target: MBP-tagged PHB2 N-terminal region (amino acids 1–152) (human) (UniProt Q99623); assay: as above

PHB2 C-terminal fragment (residues 101–299), prey clone of the yeast two-hybrid library (from UniProt Q99623 101-299) (domain or fragment)
binding [1]: binds

B1: RSU1-Clover (mClover-N1 vector carrying RSU1) (protein, UniProt Q15404 1-277)
chain: MSKSLKKLVEESREKNQPEVDMSDRGISNMLDVNGLFTLSHITQLVLSHNKLTMVPPNIAELKNLEVLNFFNNQIEELPTQISSLQKLKHLNLGMNRLNTLPRGFGSLPALEVLDLTYNNLSENSLPGNFFYLTTLRALYLSDNDFEILPPDIGKLTKLQILSLRDNDLISLPKEIGELTQLKELHIQGNRLTVLPPELGNLDLTGQKQVFKAENNPWVTPIADQFQLGVSHVFEYIRSETYKYLYGRHMQANPEPPKKNNDKSKKISRKPLAAKNR
binding [2]: binds weakly

B2: RSU1-Ruby2 (protein, UniProt Q15404 1-277)
chain: MSKSLKKLVEESREKNQPEVDMSDRGISNMLDVNGLFTLSHITQLVLSHNKLTMVPPNIAELKNLEVLNFFNNQIEELPTQISSLQKLKHLNLGMNRLNTLPRGFGSLPALEVLDLTYNNLSENSLPGNFFYLTTLRALYLSDNDFEILPPDIGKLTKLQILSLRDNDLISLPKEIGELTQLKELHIQGNRLTVLPPELGNLDLTGQKQVFKAENNPWVTPIADQFQLGVSHVFEYIRSETYKYLYGRHMQANPEPPKKNNDKSKKISRKPLAAKNR
binding (PHB2-Clover (human)): binds

B3: RSU1, endogenous in HT1080 cells (protein, UniProt Q15404 1-277)
chain: MSKSLKKLVEESREKNQPEVDMSDRGISNMLDVNGLFTLSHITQLVLSHNKLTMVPPNIAELKNLEVLNFFNNQIEELPTQISSLQKLKHLNLGMNRLNTLPRGFGSLPALEVLDLTYNNLSENSLPGNFFYLTTLRALYLSDNDFEILPPDIGKLTKLQILSLRDNDLISLPKEIGELTQLKELHIQGNRLTVLPPELGNLDLTGQKQVFKAENNPWVTPIADQFQLGVSHVFEYIRSETYKYLYGRHMQANPEPPKKNNDKSKKISRKPLAAKNR
binding [3]: binds | binding [4]: binds

B4: RSU1, endogenous in HeLa cells (protein, UniProt Q15404 1-277)
chain: MSKSLKKLVEESREKNQPEVDMSDRGISNMLDVNGLFTLSHITQLVLSHNKLTMVPPNIAELKNLEVLNFFNNQIEELPTQISSLQKLKHLNLGMNRLNTLPRGFGSLPALEVLDLTYNNLSENSLPGNFFYLTTLRALYLSDNDFEILPPDIGKLTKLQILSLRDNDLISLPKEIGELTQLKELHIQGNRLTVLPPELGNLDLTGQKQVFKAENNPWVTPIADQFQLGVSHVFEYIRSETYKYLYGRHMQANPEPPKKNNDKSKKISRKPLAAKNR
binding [5]: binds

B5: GST-tagged RSU1 (full length) (protein, UniProt Q15404 1-277)
chain: MSKSLKKLVEESREKNQPEVDMSDRGISNMLDVNGLFTLSHITQLVLSHNKLTMVPPNIAELKNLEVLNFFNNQIEELPTQISSLQKLKHLNLGMNRLNTLPRGFGSLPALEVLDLTYNNLSENSLPGNFFYLTTLRALYLSDNDFEILPPDIGKLTKLQILSLRDNDLISLPKEIGELTQLKELHIQGNRLTVLPPELGNLDLTGQKQVFKAENNPWVTPIADQFQLGVSHVFEYIRSETYKYLYGRHMQANPEPPKKNNDKSKKISRKPLAAKNR
binding [6]: no binding (tested: 10 μg/ml) | binding [7]: no binding (tested: 10 μg/ml)
